T1: TRAF2, Q12933
T1 chain: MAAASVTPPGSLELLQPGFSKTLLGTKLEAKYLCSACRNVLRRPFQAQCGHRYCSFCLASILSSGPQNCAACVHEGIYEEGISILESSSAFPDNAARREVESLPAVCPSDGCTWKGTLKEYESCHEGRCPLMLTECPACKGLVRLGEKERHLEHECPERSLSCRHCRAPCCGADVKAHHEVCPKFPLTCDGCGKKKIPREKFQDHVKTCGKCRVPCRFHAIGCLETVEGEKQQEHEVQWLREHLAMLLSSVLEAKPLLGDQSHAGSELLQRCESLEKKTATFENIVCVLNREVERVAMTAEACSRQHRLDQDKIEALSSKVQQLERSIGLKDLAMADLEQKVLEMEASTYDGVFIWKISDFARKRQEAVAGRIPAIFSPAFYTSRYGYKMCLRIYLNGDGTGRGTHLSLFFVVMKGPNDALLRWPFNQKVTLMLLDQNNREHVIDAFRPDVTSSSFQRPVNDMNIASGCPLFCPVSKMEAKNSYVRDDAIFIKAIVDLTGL

B1: traf2_out_5_63_2366 (protein)
chain: SAAEEERRRLREEARLIEAAIRAVIDGREEEARRLLAEAEARGIDWRTVALYFRGMARALRLQNEPQEKIERMERAAEEARARAEAAAAAAAAAAAAAAA
B2: traf2_out_20_3_2251 (protein)
chain: EELRKKAEEALEAAEAQLARAAPRLPADAAAEARRLLAEARRAFKTDYTDALVAVSALRRLALEQAQAAEAAGDAETAALLQELADLAQKLAQYLYKIIE
B3: traf2_out_14_149_1245 (protein)
chain: SAEAELLRKAAELDREAAKALEEILKLLEAGKLEEAKKALEKAIKELEKRGEELGVTTSTIFEMEHILELLKKDPKEAKKATKEARKRAEDAAEALLSIA
B4: traf2_out_15_48_1337 (protein)
chain: STEALQAAGRAINDAADAVRDAVAATLDELIPKADPEVKAELEALRARARAGAPLRTLRADLEALAKKADPEQKAVLDKQIAEIDATIAAMSATMNAVEA
B5: traf2_out_6_169_2480 (protein)
chain: SMEEEKKKKAEELLKELEKQAEEFLNIAKQVAEGKGVSSLENALLALETLLSQTKHLYDKAIKKFKELGFEEEAKKVEELKKKRLEELEKLLKEVKEKAA
B6: traf2_out_11_169_827 (protein)
chain: EEAEKNRKINDKALELEDKAKKEFKEFVLKLAKEDGLDVEEIKKIFEENKNKSLSAQAAAVIEYFKSKGKEEAAKKVLEKYEELKEKINKEVTAFIKELE
B7: traf2_out_17_162_1614 (protein)
chain: SELEKEKEELEKELEELEKELERLEKKLENIDKLSKEELSDLLVEASEARRRAREALERIKKLEEKLDKEEYEKLSKRFEELAERFQRIANKLYKKLEEK
B8: traf2_out_3_89_2279 (protein)
chain: MEEEEKKIEEARKNIETHIKGLEKSTRRVAEKMLEEGYSLETIKGLIKSSATALLEAFKISLKDEGFDEETIKELVEEAEKKLKEIEKELIEEAEKKYEE
B9: traf2_out_6_169_2491 (protein)
chain: SMAEELKKEAERHLKTAKELYEIAKTIYNQAINNKNYENIDDYIEALETIKNAYKHHYDKAIEYYKKLGNEEEAEKLEKEKEKKLKEIDEMIKKLKELKK
B10: traf2_out_14_17_1299 (protein)
chain: SILEKLEEIKKLAEELAKKYPELALETTRLVRKAESAIVLAEMYLEDPSYKPLAIEGLRNLKKLAEELAKKLKGKSAEGQKKAEEIKELAEKAIEELEKE
B11: traf2_out_16_177_1459 (protein)
chain: ELQKIMDRIVILSLIKRAAEYIVAGKEEEAKKYIEEARKEAEEAGDEEGLKLLEELEKLAKENTPEAKKKIKELARKAQKEAGELAEKAEELLEKRAKEE
B12: traf2_out_19_16_1982 (protein)
chain: HMEEAEKLIKEMKEYLEKALKLAKETVENLEKLSREELSDKLVEISELIRKAQEALEKAKKLLSDDKEKIKELEKEFDEKLDEINRLMTIIVNKYEELLK
B13: traf2_out_11_155_743 (protein)
chain: EERRKLNQEMNDKIMDLFDKAREEALKIAEEAAKKHPEHKEALDAKIESTKGFSYRSFILSLIELFKKLGLEEEAKKLEELLEKTQKEANKIVQETEKKL
B14: traf2_out_20_3_2181 (protein)
chain: EELEKELEKEKKEALKLIEQAAKLADKETAKRLKELAKRLEESETLSYEDQLVELSEIRRELLRLAEEARARGDEELAAVLEAAADALNRAMNLVQKIIE
B15: traf2_out_5_189_2327 (protein)
chain: SARAAEQAALRARARRLDREARELLAEAKAEGLSLEEIIERLLERAATLSLEDAQLYVGIAYAILKGEALANNDEELLKAAEEFRERAMAWIAARRAAAA
B16: traf2_out_16_177_1447 (protein)
chain: ELDRLMDRLVILSHLRRAAELAVEGRLDAAREELARARAEAEEAGDAEGLALADEIAALIAENTPEARARLAALAARLQAEAGKLAEEAEALIKARAAAE
B17: traf2_out_9_17_2613 (protein)
chain: SAEEKYLKEKLLEAIEEVLKELVEKGYITEEEAEEILEKVKEMIEKGASPDEIIASFLGDVASILLTKSNLSLPEANKIVGEAYRKLRERLEKIEKELAA
B18: traf2_out_11_169_820 (protein)
chain: AEKKFNRELNDFALEENDKANEELKKFALALAKEEGLDVAEVEKIFEETKGKSLSYIASKLIAWFRSKGAEKAAAAVEAKHDELQDEINKKVSAKIKELK
B19: traf2_out_17_162_1471 (protein)
chain: MSIEEVVEELKKELEELRKRAEELEEKLKELEKLSKEELTDLLVEASEARRRALELAERFKELAPEIGEEVAEEYAKEAEEIAERLQRIANKIYKEIEKK
B20: traf2_out_16_171_1444 (protein)
chain: SREERAREILERIRERVERLKERAATALEMAPLIMRETGLTPEQIAAGVASHFDDRLAELRRFIEEHRPELSPEELEEAEALLAEAEAHVEAQLAAIRAL
B21: traf2_out_13_95_1126 (protein)
chain: SKEVAEKIMEIADEMEEKVLEKLEELLEIAKKKGIAEEEIKEILELAKHGTISTVIHKLKELSKKYPELKEEFEETIKELEEIRREAGREVAKILKEEEE
B22: traf2_out_6_156_2409 (protein)
chain: MVEKILKEALEEIEKLIKELAKASEEKKIAYISKIAGTAYRALQKLREAGASLEEIEKFSKELLERIEKLLKEAGLPEETRNLVLSALQAVFDVAIEEAK
B23: traf2_out_17_178_1743 (protein)
chain: SKEEILKKISELADKMLDTSAAAAAELRAIAEREGVLTPELRARLDEVARNSNAYALDEVAAEVIARTPRAEEVAALRDATLAKLKALEKEIQKAVDELE
B24: traf2_out_11_169_822 (protein)
chain: EQKEFNRKLNDFALEKNDEANEKLKEEALKLAKEAGLDVEEVEKIFEENKGKSLSAIAAALIEWFKSKGKEEEAAKVLELHDKLKDEINKAVSEKIKELE
B25: traf2_out_6_156_2457 (protein)
chain: TLEKILEETKKKIKEGVKKLAEASEEKKIAYINKIAGAFYRGLQRAREAGASLEELEAFARELIKVAKEEAKKAGLDEDTKNLLLSTLNAVADVALREAA
B26: traf2_out_18_117_1781 (protein)
chain: SEREELIKELQEIAERLDEAASRLGKVFLDNYEKLTPEEKSEIMDILADLTAVRQKALQLIIKIENGEIEVEEAKKELEKLKKEAEEAIKKAEERIKKIE
B27: traf2_out_20_3_2166 (protein)
chain: EELEKKAEEELKKALELLKEAAKLADPETAKRLEELIKRLKASEELSPVDRLVVVSEVRREVLLLAQEARAAGDEELAELLEKAADALNRLAQLLYEIIE
B28: traf2_out_11_104_652 (protein)
chain: LTREQARKFNDFAMEQRDRAQEIGRAVAAALRAAGEDAAAARVEALLADPGAGISSFRNLLEELRPELDPASQAVADAAIERLEELQREASEKLNELEAE
B29: traf2_out_11_155_707 (protein)
chain: SEKLEIYQQLVNENMEIADEALEKLNELIKEIAKKDPEVAKELKKVLEENKDAGYTTKLLLAEKVLKAAGYEEEAKKVKEILEEAQKKSNEIAKKAEEKL

In all, about 1,800 sequences were measured (“median log2 fold change of GCK-ALFA target abundance (FLAG IP / Myc IP barcode read proportion)”: median about 0.14, lowest 2% from about -0.84 on). This is one part of the list.

This experiment concerns the target T1, TRAF2, Q12933. In words: median log2 fold change of GCK-ALFA target abundance (FLAG IP / Myc IP barcode read proportion) (log2 ratio); each designed protein is fused to an ALFA-tag nanobody in HEK293 cells to bring the named protein to FLAG-tagged glucokinase (GCK); Myc marks an untargeted standard; higher = target protein stabilised (more abundant). Conditions: target protein: 3xFLAG-MCP-GCK-ALFA reporter; HEK293 landing pad (RPLP). A digest of the protocol:
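HEK293 landing-pad cells received a recombined binder library fused to the ALFA nanobody and were induced with 2 μg mL^−1 doxycycline, then transfected with a plasmid encoding a FLAG-tagged target and a Myc-tagged standard. Lysates were collected after 48 h for anti-FLAG and anti-Myc immunoprecipitation, and the circular RNA barcodes were reverse transcribed, amplified and sequenced. Target abundance for each binder is the median log2 ratio of FLAG to Myc barcode read proportions. Barcodes had to reach a proportion of at least 10^−7 in both replicates, each binder needed at least 3 barcodes per replicate, a pseudocount of 10^−6 was applied, and the two replicates were pooled.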
As to B1, the “median log2 fold change” value was -0.861.
Under B2 stands 0.331; under B3, 0.266.
Take B4: the “median log2 fold change” value was found to be 0.367.
For B5, the “median log2 fold change” value is 0.277.
For the molecule B6, the “median log2 fold change” value was -0.542.
Regarding B7, the “median log2 fold change” value amounted to 0.0103.
Take B8: the “median log2 fold change” value amounted to 0.175.
B9: the “median log2 fold change” value was -0.373.
On to B10, for which the “median log2 fold change” value was -0.0329.
Consider B11, for which the “median log2 fold change” value amounted to 0.0013.
In the case of B12, the “median log2 fold change” value worked out at 0.129.
For B13, the “median log2 fold change” value was determined as 0.182.
Take B14: the “median log2 fold change” value worked out at 0.145.
On to B15, for which the “median log2 fold change” value is -0.128.
B16: the “median log2 fold change” value worked out at 0.0857.
As to B17, the “median log2 fold change” value is 0.0985.
For the molecule B18, the “median log2 fold change” value was 0.295.
Turning to B19, the “median log2 fold change” value worked out at 0.35.
Regarding B20, the “median log2 fold change” value was -0.131.
On to B21, for which the “median log2 fold change” value was -0.141.
To B22 belongs -0.0141; to B23, 0.172; to B24, 0.108.
With B25, the “median log2 fold change” value was -0.286.
Regarding B26, the “median log2 fold change” value stood at 0.277.
B27: the “median log2 fold change” value is -0.224.
On to B28, for which the “median log2 fold change” value was 0.149.
To B29 belongs 0.384.

The values above are taken from the supplement of paper PMC12632987.
